Laboratory results taken from the supplement of paper PMC8728848.
The other results are listed elsewhere or left out.

Experiments:
Test in all cases: glycan array binding signal (z-score within array); higher = stronger binding
Conditions in all cases: glycan notation: IUPAC condensed, linker removed
[1] = target: Man(a1-2)Man(a1-3)[Man(a1-2)Man(a1-6)]Man
Outline: (§1)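 The binding signal is a Z-score computed within each array. Data were drawn from 3228 arrays in the Consortium for Functional Glycomics database, restricted to those with a known protein sequence. Scores were averaged over arrays of the same protein sequence at different concentrations or buffers, and over linkers, and negative values can be taken as non-binding.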

[2] = target: Man(a1-2)Man(a1-3)[Man(a1-2)Man(a1-6)]Man(a1-6)[Man(a1-2)Man(a1-2)Man(a1-3)]Man
Outline: as §1

[3] = target: Man(a1-2)Man(a1-3)[Man(a1-2)Man(a1-6)]Man(a1-6)[Man(a1-2)Man(a1-2)Man(a1-3)]Man(b1-4)GlcNAc(b1-4)GlcNAc
Outline: as §1

[4] = target: Man(a1-2)Man(a1-3)[Man(a1-6)]Man(a1-6)[Man(a1-2)Man(a1-3)]Man(b1-4)GlcNAc(b1-4)GlcNAc
Outline: as §1

[5] = target: Man(a1-2)Man(a1-6)[Man(a1-3)]Man(a1-6)[Man(a1-2)Man(a1-2)Man(a1-3)]Man
Outline: as §1

[6] = target: Man(a1-2)Man(a1-6)[Man(a1-3)]Man(a1-6)[Man(a1-2)Man(a1-2)Man(a1-3)]Man(b1-4)GlcNAc(b1-4)GlcNAc
Outline: as §1

[7] = target: Man(a1-3)[Man(a1-6)]Man
Outline: as §1

[8] = target: Man(a1-3)[Man(a1-6)]Man(a1-6)[Man(a1-2)Man(a1-3)]Man(b1-4)GlcNAc(b1-4)GlcNAc
Outline: as §1

[9] = target: Man(a1-3)[Man(a1-6)]Man(a1-6)[Man(a1-3)]Man
Outline: as §1

[10] = target: Man(a1-3)[Man(a1-6)]Man(a1-6)[Man(a1-3)]Man(b1-4)GlcNAc(b1-4)GlcNAc
Outline: as §1

[11] = target: Man(a1-3)[Man(a1-6)]Man(b1-4)GlcNAc(b1-4)GlcNAc
Outline: as §1

[12] = target: Man(a1-3)[Man(a1-6)]Man(b1-4)GlcNAc(b1-4)[Fuc(a1-6)]GlcNAc
Outline: as §1

[13] = target: Man(a1-6)Man
Outline: as §1

[14] = target: Man(b1-4)GlcNAc
Outline: as §1

[15] = target: MurNAc(b1-4)GlcNAc
Outline: as §1

[16] = target: Neu5Ac(a2-3)Gal
Outline: as §1

[17] = target: Neu5Ac(a2-3)Gal(b1-3)GalNAc
Outline: as §1

[18] = target: Neu5Ac(a2-3)Gal(b1-3)GalNAc(b1-3)Gal(a1-4)Gal(b1-4)Glc
Outline: as §1

[19] = target: Neu5Ac(a2-3)Gal(b1-3)GalNAc(b1-4)[Neu5Ac(a2-3)]Gal(b1-4)Glc
Outline: as §1

[20] = target: Neu5Ac(a2-3)Gal(b1-3)GalNAc(b1-4)[Neu5Ac(a2-8)Neu5Ac(a2-3)]Gal(b1-4)Glc
Outline: as §1

[21] = target: Neu5Ac(a2-3)Gal(b1-3)GalNAc6S
Outline: as §1

[22] = target: Neu5Ac(a2-3)Gal(b1-3)GlcNAc
Outline: as §1

[23] = target: Neu5Ac(a2-3)Gal(b1-3)GlcNAc(b1-2)Man
Outline: as §1

[24] = target: Neu5Ac(a2-3)Gal(b1-3)GlcNAc(b1-2)Man(a1-3)[GlcNAc(b1-4)][Neu5Ac(a2-3)Gal(b1-3)GlcNAc(b1-2)Man(a1-6)]Man(b1-4)GlcNAc(b1-4)GlcNAc
Outline: as §1

[25] = target: Neu5Ac(a2-3)Gal(b1-3)GlcNAc(b1-2)Man(a1-3)[Neu5Ac(a2-3)Gal(b1-3)GlcNAc(b1-2)Man(a1-6)]Man(b1-4)GlcNAc(b1-4)GlcNAc
Outline: as §1

[26] = target: Neu5Ac(a2-3)Gal(b1-3)GlcNAc(b1-3)Gal(b1-3)GlcNAc
Outline: as §1

[27] = target: Neu5Ac(a2-3)Gal(b1-3)GlcNAc(b1-3)Gal(b1-4)GlcNAc
Outline: as §1

[28] = target: Neu5Ac(a2-3)Gal(b1-3)GlcNAc(b1-3)GalNAc
Outline: as §1

[29] = target: Neu5Ac(a2-3)Gal(b1-3)GlcNAc(b1-4)Gal(b1-4)Glc
Outline: as §1

[30] = target: Neu5Ac(a2-3)Gal(b1-3)GlcNAc(b1-6)GalNAc
Outline: as §1

[31] = target: Neu5Ac(a2-3)Gal(b1-3)GlcNAc6S
Outline: as §1

[32] = target: Neu5Ac(a2-3)Gal(b1-3)[Fuc(a1-4)]GlcNAc
Outline: as §1

[33] = target: Neu5Ac(a2-3)Gal(b1-3)[Fuc(a1-4)]GlcNAc(b1-3)Gal(b1-3)[Fuc(a1-4)]GlcNAc
Outline: as §1

[34] = target: Neu5Ac(a2-3)Gal(b1-3)[Fuc(a1-4)]GlcNAc(b1-3)Gal(b1-4)[Fuc(a1-3)]GlcNAc
Outline: as §1

[35] = target: Neu5Ac(a2-3)Gal(b1-3)[GlcNAc(b1-6)]GalNAc
Outline: as §1

[36] = target: Neu5Ac(a2-3)Gal(b1-3)[Neu5Ac(a2-6)]GalNAc
Outline: as §1

[37] = target: Neu5Ac(a2-3)Gal(b1-3)[Neu5Ac(a2-6)]GlcNAc(b1-3)[Fuc(a1-3)[Gal(b1-4)]GlcNAc(b1-6)]Gal(b1-4)Glc
Outline: as §1

[38] = target: Neu5Ac(a2-3)Gal(b1-3)]Neu5Ac(a2-3)Gal(b1-4)]GlcNAc
Outline: as §1

[39] = target: Neu5Ac(a2-3)Gal(b1-4)Glc
Outline: as §1

[40] = target: Neu5Ac(a2-3)Gal(b1-4)GlcNAc
Outline: as §1

[41] = target: Neu5Ac(a2-3)Gal(b1-4)GlcNAc(b1-2)Man
Outline: as §1

[42] = target: Neu5Ac(a2-3)Gal(b1-4)GlcNAc(b1-2)Man(a1-3)[GlcNAc(b1-4)][Neu5Ac(a2-3)Gal(b1-4)GlcNAc(b1-2)Man(a1-6)]Man(b1-4)GlcNAc(b1-4)GlcNAc
Outline: as §1

[43] = target: Neu5Ac(a2-3)Gal(b1-4)GlcNAc(b1-2)Man(a1-3)[Neu5Ac(a2-3)Gal(b1-4)GlcNAc(b1-2)Man(a1-6)]Man(b1-4)GlcNAc(b1-4)GlcNAc
Outline: as §1

[44] = target: Neu5Ac(a2-3)Gal(b1-4)GlcNAc(b1-2)Man(a1-3)[Neu5Ac(a2-3)Gal(b1-4)GlcNAc(b1-2)Man(a1-6)]Man(b1-4)GlcNAc(b1-4)[Fuc(a1-6)]GlcNAc
Outline: as §1

[45] = target: Neu5Ac(a2-3)Gal(b1-4)GlcNAc(b1-2)Man(a1-3)[Neu5Ac(a2-6)Gal(b1-4)GlcNAc(b1-2)Man(a1-6)]Man(b1-4)GlcNAc(b1-4)GlcNAc
Outline: as §1

B1: LSL-150 (Laetiporus sulphureus), Q7Z8V1 (protein)
chain: MTDIYIPPEGLYFRLLGFASRQVIFARNSPSPDVGLSPVNDQATDQYFSLIYGTGEHAGLYAIKSKATGKVLFSRRPAEPYVGQIDGDGRYPDNWFKIEPGKTYLSKYFRLVQPSTGTALVSRTHLQPYFWNHPQTEVFDDQYFTFLFEDHHHHHH
B1 was tested, and the “glycan array binding signal (z-score)” value [1] was -0.208, the “glycan array binding signal (z-score)” value [2] was -0.211 and the “glycan array binding signal (z-score)” value [3] was -0.213. For the same binder, the “glycan array binding signal (z-score)” value [4] was -0.208, the “glycan array binding signal (z-score)” value [5] was -0.212 and the “glycan array binding signal (z-score)” value [6] was -0.209. The “glycan array binding signal (z-score)” value [7] was -0.2, the “glycan array binding signal (z-score)” value [8] was -0.206 and the “glycan array binding signal (z-score)” value [9] was -0.204. The “glycan array binding signal (z-score)” value [10] was -0.203, the “glycan array binding signal (z-score)” value [11] was -0.208 and the “glycan array binding signal (z-score)” value [12] was -0.208. For the same binder, the “glycan array binding signal (z-score)” value [13] was -0.204, the “glycan array binding signal (z-score)” value [14] was -0.209 and the “glycan array binding signal (z-score)” value [15] was -0.2. The “glycan array binding signal (z-score)” value [16] was -0.213, the “glycan array binding signal (z-score)” value [17] was -0.208 and the “glycan array binding signal (z-score)” value [18] was -0.206. For the same binder, the “glycan array binding signal (z-score)” value [19] was -0.203, the “glycan array binding signal (z-score)” value [20] was -0.202 and the “glycan array binding signal (z-score)” value [21] was -0.202. For the same binder, the “glycan array binding signal (z-score)” value [22] was -0.194, the “glycan array binding signal (z-score)” value [23] was -0.196 and the “glycan array binding signal (z-score)” value [24] was -0.208. The “glycan array binding signal (z-score)” value [25] was -0.203, the “glycan array binding signal (z-score)” value [26] was -0.207 and the “glycan array binding signal (z-score)” value [27] was -0.174. The “glycan array binding signal (z-score)” value [28] was -0.213, the “glycan array binding signal (z-score)” value [29] was -0.216 and the “glycan array binding signal (z-score)” value [30] was -0.209. For the same binder, the “glycan array binding signal (z-score)” value [31] was -0.202, the “glycan array binding signal (z-score)” value [32] was -0.205 and the “glycan array binding signal (z-score)” value [33] was -0.215. For the same binder, the “glycan array binding signal (z-score)” value [34] was -0.208, the “glycan array binding signal (z-score)” value [35] was -0.21 and the “glycan array binding signal (z-score)” value [36] was -0.208. For the same binder, the “glycan array binding signal (z-score)” value [37] was -0.203, the “glycan array binding signal (z-score)” value [38] was -0.206 and the “glycan array binding signal (z-score)” value [39] was -0.191. The “glycan array binding signal (z-score)” value [40] was -0.208, the “glycan array binding signal (z-score)” value [41] was -0.198 and the “glycan array binding signal (z-score)” value [42] was -0.208. The “glycan array binding signal (z-score)” value [43] was -0.196, the “glycan array binding signal (z-score)” value [44] was -0.196 and the “glycan array binding signal (z-score)” value [45] was -0.211.
